Data on 3 molecules can be found in patent publication US20030144336A1, “Method of selecting nonsedating H1-antagonists” (priority 2001, published 2003).

Data set [1] deals with T1, MDR1 (P-gp) (Homo sapiens, UniProt P08183). The data set can be described thus: in vitro. The conditions noted are these: dog, MDCK-MDR1.
In data set [2] the target is T1, MDR1 (P-gp).
A short description of a further data set: in vivo. The conditions noted are these: male, mouse, iv, 5 mg/kg.

Structures are written as SMILES. Like-named read-outs stand apart in the source and are kept apart here.

With `O=C(O)COCCN1CCN(C(c2ccccc2)c2ccc(Cl)cc2)CC1` (centres unmarked) [Cetirizine], the apparent permeability from apical to basolateral (Papp A→B) (usually how fast a substance crosses the layer from the apical side) at 5 hr, 2 μM at MDR1 (P-gp) [1] amounted to 2.6 ×10⁻⁶ cm/s. Further, on MDR1 (P-gp) [1], the Papp B→A (commonly the apparent permeability from the basolateral to the apical side of a cell layer) at 5 hr, 2 μM turned out to be 15.2 ×10⁻⁶ cm/s. Further, the “MDR1 Substrate?” value at MDR1 (P-gp) [2] (MDCK-MDR1) was “Yes”; on MDR1 (P-gp) [2] (human, MDCK-MDR1, 5 h, 2 µM), “MDR1-mediated transport”. The Vd (as a rule, the apparent volume that relates the amount in the body to the concentration in plasma or blood) in “in vivo” (FVB and mdr1a/1b KO, in vivo) stood at 1 L/kg; in “in vivo” (FVB, in vivo) it was 0.9 L/kg; in “in vivo” (mdr1a/1b KO, in vivo) it was 1.1 L/kg. In addition, the clearance (as a rule, a measure of how efficiently the substance is removed, as volume per time) in the data set “in vivo” (FVB and mdr1a/1b KO, in vivo) was 5.4 to 7.5 mL/min/kg; in “in vivo” (FVB, in vivo), 7.5 mL/min/kg; in “in vivo” (mdr1a/1b KO, in vivo) it was 5.4 mL/min/kg.

On MDR1 (P-gp) [1], `CN(C)CCOC(c1ccccc1)c1ccccc1` [Diphenhydramine] gave a Papp A→B at 5 hr, 2 μM of 24.8 ×10⁻⁶ cm/s. For the same molecule, the Papp B→A at 5 hr, 2 μM on MDR1 (P-gp) [1] was determined as 21 ×10⁻⁶ cm/s. Besides, the “MDR1 Substrate?” value on MDR1 (P-gp) [2] (MDCK-MDR1) is listed as “No”; on MDR1 (P-gp) [2] (human, MDCK-MDR1, 5 h, 2 µM), “not MDR1 substrates”. The Vd is 1.3 to 1.6 L/kg in the data set “in vivo” (FVB and mdr1a/1b KO, in vivo); 1.3 L/kg in the data set “in vivo” (FVB, in vivo); 1.6 L/kg in “in vivo” (mdr1a/1b KO, in vivo). The clearance in the data set “in vivo” (FVB and mdr1a/1b KO, in vivo) is 62 to 66 mL/min/kg; in the data set “in vivo” (FVB, in vivo), 66 mL/min/kg; in the data set “in vivo” (mdr1a/1b KO, in vivo), 62 mL/min/kg.

For the molecule `CCOC(=O)N1CCC(=C2c3ccc(Cl)cc3CCc3cccnc32)CC1` [Loratadine], the volume of distribution (Vd) is ~2 L/kg in “in vivo” (FVB and mdr1a/1b KO, plasma); 2.2 L/kg in “in vivo” (FVB, plasma); 2.1 L/kg in the data set “in vivo” (mdr1a/1b KO, plasma). Besides, the clearance in the data set “in vivo” (FVB and mdr1a/1b KO, plasma) is 83 to 99 mL/min/kg; in the data set “in vivo” (FVB, plasma), 99 mL/min/kg; in “in vivo” (mdr1a/1b KO, plasma) it was 83 mL/min/kg.
